Experimental data as given in PubChem BioAssay AID588342 (National Center for Advancing Translational Sciences (NCATS), 2011).
Screen size: about 360,000 compounds; about 25,000 (6.9%) were called active. Inconclusive means that the source gave no clear call. Such entries were picked first, then a sample of the others. The call rests on the fitted dose curve; in most records, active means well fitted inhibition curve with a large enough effect; inconclusive means small, poorly fitted or top-dose-only effect; inactive means flat fitted curve, though single readings scatter. Where the call is inconclusive, the potency comes from a doubtful curve fit.

The molecules below were run against Luciferin 4-monooxygenase (Photinus pyralis) (UniProt P08659) (assay: qHTS profiling assay for firefly luciferase inhibitor/activator using purifed enzyme and Km concentrations of substrates (counterscreen for miR-21 project)). Conditions: purified FLuc, luminescence inhibition; activity change, negative = inhibition: at 57.5 µM (top of the series).
Sequence of UniProt P08659 (P08659 whole entry, looked up): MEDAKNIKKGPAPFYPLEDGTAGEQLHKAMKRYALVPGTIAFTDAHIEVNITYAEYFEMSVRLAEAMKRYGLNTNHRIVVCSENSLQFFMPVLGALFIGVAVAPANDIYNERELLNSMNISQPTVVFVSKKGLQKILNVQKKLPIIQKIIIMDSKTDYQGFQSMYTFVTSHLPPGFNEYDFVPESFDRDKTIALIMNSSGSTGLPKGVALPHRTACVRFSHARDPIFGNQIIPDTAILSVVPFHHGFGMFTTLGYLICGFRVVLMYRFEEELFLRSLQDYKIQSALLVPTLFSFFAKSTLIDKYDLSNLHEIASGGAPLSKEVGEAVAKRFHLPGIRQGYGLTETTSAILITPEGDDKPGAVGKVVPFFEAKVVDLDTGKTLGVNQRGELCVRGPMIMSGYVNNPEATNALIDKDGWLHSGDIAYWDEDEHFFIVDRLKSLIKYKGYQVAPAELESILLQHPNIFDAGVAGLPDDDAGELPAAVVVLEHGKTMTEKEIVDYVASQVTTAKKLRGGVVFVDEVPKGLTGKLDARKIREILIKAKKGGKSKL
How it was run: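 Biochemical qHTS of compounds, final roughly 60 µM downward over six points, against 10 nM purified firefly luciferase using Km concentrations of substrates (10 uM D-luciferin, 10 uM ATP) in Tris acetate pH 7.5 buffer; luminescence output.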
Further: nearly all actives have a fitted effect of over 55% in size.
Potency means the concentration at half of the fitted maximal effect; tags describe the fitted curve by direction and shape.
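Wherever activity change, negative = inhibition is given: plate controls were vehicle for no effect and reference inhibitor for full effect.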

| Structure (SMILES) | activity change, negative = inhibition | Potency |
| --- | --- | --- |
| CCCCCCC(CC(=O)NCc1cccnc1)CC(=O)NCc1cccnc1 | inactive: 1.31% |  |
| CNc1ccc(Br)cc(C(=O)/C=C/c2ccc(Cl)cc2Cl)c1=O |  | inconclusive: 23.9 µM [inhibitor, partial curve, poor fit] |
| Cc1cccc(NC(=O)c2ccc(S(=O)(=O)NCc3cccnc3)cc2)c1 | inactive: 3.03% |  |
| O=C(/C=C\c1ccccc1[N+](=O)[O-])Nc1ccccc1 |  | active: 10.7 µM |
| COc1cc(-c2ccc(Nc3ccccc3C(=O)O)c(OC)c2)ccc1Nc1ccccc1C(=O)O |  | inconclusive: 37.9 µM [inhibitor, single point] |
| O=C(Nc1cccc(-c2cccc(F)c2)c1)C1CCN(C2CCC2)CC1 |  | inconclusive: 37.9 µM [inhibitor, partial curve, poor fit] |
| CCCC(=O)Nc1ccc(-c2nc3cc(C)ccc3o2)cc1 |  | active: 0.536 µM |
| CC(=O)n1nc(-c2ccncc2)nc1SCC(=O)Nc1cccc(Cl)c1 |  | inconclusive: 23.9 µM [inhibitor, partial curve, poor fit] |
| NNC(=O)c1ccc(COc2ccc([N+](=O)[O-])cc2)o1 |  | inconclusive: 37.9 µM [inhibitor, partial curve, poor fit] |
| Cc1cccc(NC(=O)C2CC(=O)N/C(=N/N=C/c3ccco3)S2)c1 (stereo not drawn) |  | inconclusive: 26.9 µM [inhibitor, single point] |
| CSc1ccccc1Nc1ncnc(N)n1 | inactive: 7.21% |  |
| COc1ccccc1-n1c(C)cc(/C=C2\C(=N)N3N=C(CC(=O)N4CCOCC4)SC3=NC2=O)c1C |  | active: 23.9 µM |
| CCc1nnc(NC(=O)CSc2ccc(-c3ccc(-n4cccn4)cc3)nn2)s1 |  | active: 1.2 µM |
| CC1CCN(c2ccc(/C=N\Nc3nncn3N)cc2[N+](=O)[O-])CC1 |  | inconclusive: 37.9 µM [inhibitor, single point] |
| CCCCOC(=O)c1ccc(NC(=O)c2nn(C)cc2Br)cc1 |  | active: 21.3 µM |
| Cc1cccc2c1N(CCOc1ccc(C(C)(C)C)cc1)C(=O)C2=O |  | inconclusive: 6.75 µM [inhibitor, partial curve, poor fit] |
| CCc1ccc(/C=C2/Sc3ccccc3N(CC(=O)NCC3CCCO3)C2=O)cc1 (stereo not drawn) |  | active: 19 µM |
| CC(C)c1ccc(Nc2c([N+](=O)[O-])c(=O)n(C)c3ccccc23)cc1 |  | inconclusive: 37.9 µM [inhibitor, partial curve, poor fit] |
| N/C(=N\OC(=O)Cc1ccccc1)c1ccc(Br)cc1 |  | inconclusive: 26.9 µM [inhibitor, single point] |
| Cc1cc(N/N=C/c2ccc3c(c2)OCO3)nc2ccccc12 |  | active: 2.69 µM |
| CCCC(=O)N1CCN(c2nc3ccc(Cl)cc3s2)CC1 |  | active: 12 µM |
| O=C1OC(Nc2ccc(Cl)cn2)c2ccccc21 (stereo not drawn) |  | inconclusive: 8.49 µM [inhibitor, partial curve, poor fit] |
| O=C(NCc1cccs1)c1ccc2ccccc2n1 |  | inconclusive: 30.1 µM [inhibitor, partial curve, poor fit] |
| COc1ccc(OC)c(NC(=O)/C=C/c2ccc(C)o2)c1 |  | inconclusive: 26.9 µM [inhibitor, partial curve, poor fit] |

| Structure (SMILES) | activity change, negative = inhibition | Potency |
| --- | --- | --- |
| N#CCSc1ccsc1C(=O)Nc1ccc(F)cc1 |  | inconclusive: 30.1 µM [inhibitor, partial curve, poor fit] |
| Cc1ccc(-c2ccc(NC(=O)C3C4C=CC(C4)C3C(=O)O)cc2)o1 (stereo not drawn) |  | active: 15.1 µM |
| O=C(CCc1ccccc1)Nc1ccc2ccccc2n1 |  | active: 6.75 µM |
| Cc1nn(-c2ccc(F)cc2)c2sc(C(=O)OC3CCOC3=O)cc12 (stereo not drawn) |  | inconclusive: 26.9 µM [inhibitor, single point] |
| CCOC(=O)Cn1cc(/C=C(\C#N)C(=O)N2CCOCC2)c2ccccc21 |  | inconclusive: 37.9 µM [inhibitor, partial curve, poor fit] |
| O=C(Nc1nc2ccc(Cl)cc2s1)c1cccc(N2C(=O)CCC2=O)c1 |  | active: 1.35 µM |
| CCc1ccc(OCC(=O)N/N=C(\C)c2ccc(O)cc2O)cc1 |  | inconclusive: 37.9 µM [inhibitor, single point] |
| COC(=O)c1ccc(-c2nc3ccccc3[nH]2)cc1 |  | active: 1.69 µM |
| COc1cc(OC)c(/C=C2\C(=O)Nc3ccccc32)c(OC)c1 | inactive: -12.2% |  |
| CC(=O)c1ccc(/C=C/c2nc3ccccc3n2C)o1 |  | active: 5.36 µM |
| O=C(Nc1ccccn1)c1ccc(Br)c(S(=O)(=O)N2CCCC2)c1 |  | inconclusive: 23.9 µM [inhibitor, partial curve] |
| Nc1ccc2c(c1)C(=O)N(CC1CCCO1)C2=O (stereo not drawn) | inactive: -12% |  |
| CCN(CC)S(=O)(=O)c1ccc(C(=O)N2CCN(CCN3C(=O)c4cccc5cccc(c45)C3=O)CC2)cc1 | inactive: 1.46% |  |
| CCc1ccc(N=CC2=C(O)CC(c3ccco3)CC2=O)cc1 (stereo not drawn) |  | inconclusive: 19 µM [inhibitor, partial curve] |
| Cc1ccc(/C=C2/SC(=S)N(CCC(=O)NCCCN3CCOCC3)C2=O)cc1 |  | inconclusive: 10.7 µM [inhibitor, partial curve] |
| COc1ccc(OC)c(NC(=O)c2cnn(-c3ccc(C)cc3)c2C2CCNCC2)c1 | inactive: -3.62% |  |
| Cc1cccn2cc(-c3ccc(F)cc3)cc12 |  | inconclusive: 8.49 µM [inhibitor, partial curve, poor fit] |
| O=C(NC(=S)NC1CCCCCCCCCCC1)c1cccnc1 | inactive: 0.082% |  |
| CSc1nc2nc3c(cc2c(=O)[nH]1)C(O)Oc1ccc(C)cc1-3 (stereo not drawn) |  | inconclusive: 21.3 µM [inhibitor, single point] |
| Cc1ccc(C(=O)Nc2cccnc2)cc1S(=O)(=O)N1CCOCC1 | inactive: -0.236% |  |
| Cc1nn2c(=O)cc(COC(=O)c3c(F)cccc3Cl)nc2s1 |  | inconclusive: 12 µM [inhibitor, partial curve] |
| Cc1coc2cc3oc(=O)c(CC(=O)NCCc4ccccc4)c(C)c3cc12 | inactive: 2.72% |  |
| CCn1c(=O)cc(OCC(=O)Nc2cc(Cl)c(OC)cc2OC)c2ccccc21 | inactive: -0.432% |  |
| CC(=O)c1ccc(OCc2cc(C(=O)N(C)CCOc3ccc(C)cc3)no2)cc1 |  | active: 9.53 µM |
